Measured values: the supplement of paper PMC10132981, “Formate overflow drives toxic folate trapping in MTHFD1 inhibited cancer cells” (Nature Metabolism, 2023)
± gives the standard deviation of the averaged measurements. Further values from the same series stand in other lists.

Assays:
SW620 [1] = assay: cell viability relative to lowest-dose well (resazurin, 96 h); higher = more viable; conditions: RPMI + 10% FBS
Outline: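 Viability values are expressed as percent of the lowest-dose well, using independent replicate cultures. HCT116 cells at 500 cells/well or SW620 cells at 1,000 cells/well were plated in 384-well plates in 50 µl RPMI containing 10% FBS and a metabolite supplement, then given compound dilution series dispensed from 10 mM DMSO stocks. After 96 h at 37 °C and 5% CO2, resazurin (10 µg ml^−1) conversion to resorufin was read by fluorescence at 595 nm after 5 h.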

SW620 [2] = assay: cell viability relative to vehicle (resazurin, 96 h); higher = more viable; conditions: base medium: RPMI + dialysed FBS
Description: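 SW620 WT or MTHFD2-/- cells were treated for 96 h with a compound dilution series (log10 M) in RPMI with normal or dialysed FBS. Viability was read by resazurin and is given as % of vehicle.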

`O=c1[nH]cc(F)c(=O)[nH]1` [5-fluorouracil] showed a cell viability (SW620 [1]; 0.01 µM, metabolite supplement: 50uM thymidine + 250uM folic acid) of 104 ± 4.6%, a cell viability (SW620 [1]; 0.01 µM, metabolite supplement: 50uM thymidine) of 103 ± 1.4% and a cell viability (SW620 [1]; 0.01 µM, metabolite supplement: 250uM folic acid) of 99.9 ± 0.7%. It also gave a cell viability (SW620 [1]; 0.01 µM, metabolite supplement: vehicle) of 102 ± 2.1%, a cell viability (SW620 [1]; 0.0278 µM, metabolite supplement: 50uM thymidine + 250uM folic acid) of 101 ± 4.6% and a cell viability (SW620 [1]; 0.0278 µM, metabolite supplement: 250uM folic acid) of 100.3 ± 0.9%. The cell viability (SW620 [1]; 0.0774 µM, metabolite supplement: 50uM thymidine + 250uM folic acid) was 102 ± 3.3%, the cell viability (SW620 [1]; 0.0774 µM, metabolite supplement: 250uM folic acid) was 100 ± 2.2% and the cell viability (SW620 [1]; 0.215 µM, metabolite supplement: 50uM thymidine + 250uM folic acid) was 101 ± 1.4%. For the same compound, the cell viability (SW620 [1]; 0.215 µM, metabolite supplement: 250uM folic acid) was 98.4 ± 1.9%, the cell viability (SW620 [1]; 0.599 µM, metabolite supplement: 50uM thymidine) was 89.6 ± 6% and the cell viability (SW620 [1]; 0.599 µM, metabolite supplement: 250uM folic acid) was 96.733 ± 0.058%.
With `CN(Cc1cnc2nc(N)nc(N)c2n1)c1ccc(C(=O)N[C@@H](CCC(=O)O)C(=O)O)cc1` [methotrexate] the cell viability (SW620 [2]; log10 compound concentration (M): -5, supplement / serum: 50 μM Hypoxanthine + 50 μM Thymidine) was 96.3 ± 12%, the cell viability (SW620 [2]; log10 compound concentration (M): -5, supplement / serum: 50 μM Hypoxanthine) was 6.61 ± 0.93% and the cell viability (SW620 [2]; log10 compound concentration (M): -5, supplement / serum: 50 μM Thymidine) was 5.4 ± 1.1%. The cell viability (SW620 [2]; log10 compound concentration (M): -5, supplement / serum: No metabolite) was 6.17 ± 1.1%, the cell viability (SW620 [2]; log10 compound concentration (M): -5.47712, supplement / serum: 50 μM Hypoxanthine + 50 μM Thymidine) was 107 ± 5.3% and the cell viability (SW620 [2]; log10 compound concentration (M): -5.47712, supplement / serum: 50 μM Hypoxanthine) was 7.87 ± 1.6%. The cell viability (SW620 [2]; log10 compound concentration (M): -5.47712, supplement / serum: 50 μM Thymidine) was 6.85 ± 1.4%, the cell viability (SW620 [2]; log10 compound concentration (M): -5.47712, supplement / serum: No metabolite) was 6.28 ± 0.62% and the cell viability (SW620 [2]; log10 compound concentration (M): -5.95424, supplement / serum: 50 μM Hypoxanthine + 50 μM Thymidine) was 94.9 ± 13%. The cell viability (SW620 [2]; log10 compound concentration (M): -5.95424, supplement / serum: 50 μM Hypoxanthine) was 7.98 ± 1.2%, the cell viability (SW620 [2]; log10 compound concentration (M): -5.95424, supplement / serum: 50 μM Thymidine) was 6.27 ± 0.75% and the cell viability (SW620 [2]; log10 compound concentration (M): -5.95424, supplement / serum: No metabolite) was 6.16 ± 1.1%. It also gave a cell viability (SW620 [2]; log10 compound concentration (M): -6.43136, supplement / serum: 50 μM Hypoxanthine + 50 μM Thymidine) of 94.1 ± 6.9%, a cell viability (SW620 [2]; log10 compound concentration (M): -6.43136, supplement / serum: 50 μM Hypoxanthine) of 8.16 ± 1.2% and a cell viability (SW620 [2]; log10 compound concentration (M): -6.43136, supplement / serum: 50 μM Thymidine) of 6.32 ± 1%. It also gave a cell viability (SW620 [2]; log10 compound concentration (M): -6.43136, supplement / serum: No metabolite) of 6.68 ± 1.4%, a cell viability (SW620 [2]; log10 compound concentration (M): -6.90849, supplement / serum: 50 μM Hypoxanthine + 50 μM Thymidine) of 98 ± 7.7% and a cell viability (SW620 [2]; log10 compound concentration (M): -6.90849, supplement / serum: 50 μM Hypoxanthine) of 8.56 ± 0.53%. The cell viability (SW620 [2]; log10 compound concentration (M): -6.90849, supplement / serum: 50 μM Thymidine) was 6.77 ± 1%, the cell viability (SW620 [2]; log10 compound concentration (M): -6.90849, supplement / serum: No metabolite) was 8.09 ± 2% and the cell viability (SW620 [2]; log10 compound concentration (M): -7.38561, supplement / serum: 50 μM Hypoxanthine + 50 μM Thymidine) was 98.9 ± 4.2%. The cell viability (SW620 [2]; log10 compound concentration (M): -7.38561, supplement / serum: 50 μM Hypoxanthine) was 22.8 ± 4.8%, the cell viability (SW620 [2]; log10 compound concentration (M): -7.38561, supplement / serum: 50 μM Thymidine) was 8.11 ± 1.1% and the cell viability (SW620 [2]; log10 compound concentration (M): -7.38561, supplement / serum: No metabolite) was 7.17 ± 0.24%. It also gave a cell viability (SW620 [2]; log10 compound concentration (M): -7.86273, supplement / serum: 50 μM Hypoxanthine + 50 μM Thymidine) of 102 ± 3.5%, a cell viability (SW620 [2]; log10 compound concentration (M): -7.86273, supplement / serum: 50 μM Hypoxanthine) of 76.7 ± 10% and a cell viability (SW620 [2]; log10 compound concentration (M): -7.86273, supplement / serum: 50 μM Thymidine) of 24.3 ± 7.1%. The cell viability (SW620 [2]; log10 compound concentration (M): -7.86273, supplement / serum: No metabolite) was 14.3 ± 2.9%, the cell viability (SW620 [2]; log10 compound concentration (M): -8.33985, supplement / serum: 50 μM Hypoxanthine + 50 μM Thymidine) was 96.4 ± 9.1% and the cell viability (SW620 [2]; log10 compound concentration (M): -8.33985, supplement / serum: 50 μM Hypoxanthine) was 95.5 ± 6.3%. The cell viability (SW620 [2]; log10 compound concentration (M): -8.33985, supplement / serum: 50 μM Thymidine) was 88.2 ± 14%, the cell viability (SW620 [2]; log10 compound concentration (M): -8.33985, supplement / serum: No metabolite) was 90 ± 10% and the cell viability (SW620 [2]; log10 compound concentration (M): -8.81697, supplement / serum: 50 μM Hypoxanthine + 50 μM Thymidine) was 97.4 ± 5.5%. It also gave a cell viability (SW620 [2]; log10 compound concentration (M): -8.81697, supplement / serum: 50 μM Hypoxanthine) of 93 ± 13%, a cell viability (SW620 [2]; log10 compound concentration (M): -8.81697, supplement / serum: 50 μM Thymidine) of 86.7 ± 17% and a cell viability (SW620 [2]; log10 compound concentration (M): -8.81697, supplement / serum: No metabolite) of 96.8 ± 5.3%. It also gave a cell viability (SW620 [2]; log10 compound concentration (M): -9.29409, supplement / serum: 50 μM Hypoxanthine) of 98.8 ± 6.1%, a cell viability (SW620 [2]; log10 compound concentration (M): -9.29409, supplement / serum: 50 μM Thymidine) of 97.4 ± 14% and a cell viability (SW620 [2]; log10 compound concentration (M): -9.29409, supplement / serum: No metabolite) of 85.6 ± 15%. For the same compound, the cell viability (SW620 [2]; log10 compound concentration (M): -9.77121, supplement / serum: 50 μM Hypoxanthine + 50 μM Thymidine) was 98.4 ± 7.2%, the cell viability (SW620 [2]; log10 compound concentration (M): -9.77121, supplement / serum: 50 μM Hypoxanthine) was 93.1 ± 7.1% and the cell viability (SW620 [2]; log10 compound concentration (M): -9.77121, supplement / serum: 50 μM Thymidine) was 101 ± 4.8%. The cell viability (SW620 [2]; log10 compound concentration (M): -9.77121, supplement / serum: No metabolite) was 101 ± 12%, the cell viability (SW620 [1]; 0.001 µM, metabolite supplement: 50uM thymidine + 250uM folic acid) was 98.9 ± 3% and the cell viability (SW620 [1]; 0.001 µM, metabolite supplement: 250uM folic acid) was 99.3 ± 4.2%. It also gave a cell viability (SW620 [1]; 0.00278 µM, metabolite supplement: 50uM thymidine + 250uM folic acid) of 99.6 ± 3.7% and a cell viability (SW620 [1]; 0.00278 µM, metabolite supplement: 250uM folic acid) of 100 ± 4.9%.
